# Test results: paper PMC12136788
# Some of the results follow.
# T1: UNK ZnF1-3 (human, UniProt Q9C0B0 31-174)
# T1 sequence: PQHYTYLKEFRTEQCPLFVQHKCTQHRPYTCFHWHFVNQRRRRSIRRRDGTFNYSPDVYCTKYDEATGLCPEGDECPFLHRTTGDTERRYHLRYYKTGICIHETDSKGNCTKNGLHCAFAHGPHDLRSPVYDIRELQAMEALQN
# B1: chr9:57400063:57400064:-_ENSMUSG00000032306_ENSMUST00000034856|mus_hu|FALSE|FALSE (ssRNA)
# RNA: GGGAGUUCUACAGUCCGACGAUCCAGCCGCGCCACUUCGCUGUUGGAACCCAUCUUCCCCCAGGCAUACUGCUGCACCGCACAGGAAAGUGGGAAUACUCGCGGAGCGGCCAUGCUCGCCCCCUGCACCAGGAUUAAGCACGUCAACAGAGGAUUGAGCAUCA
# B2: chr1:100327937:100327938:+_ENSG00000162688_ENST00000361915|hu_mus|FALSE|FALSE (ssRNA)
# RNA: GGGAGUUCUACAGUCCGACGAUCCUCCUUUGCCACCCUUAGCCGGCUUUCCCACUCAUCGAAGGGUCCUAAGCACUUUGCUAAGAACGUCUGCAGAGUAACACAGUCCAAGGGUAACACGUGGUUAUCAACUCCAAUGCGUAACAACAGAGGAUUGAGCAUCA
# B3: chr1:192983433:192983434:-_ENSG00000116750_ENST00000367455|hu_hu|motif|central (ssRNA)
# RNA: GGGAGUUCUACAGUCCGACGAUCAUCACAAGGGAUUUGCAAUCACCAAAGAAGAUGCAGAUAAAAUAAACCACUCUUAAGCGGUGGAAAUUCCUAUUAAGGAAUUUUAUUAGAUUAAUAAGAAAAAUCCUUAUACCUAUUAAUCAACAGAGGAUUGAGCAUCA
# B4: 2633529_2636739_1277_3pUTR_ENSG00000140992_ENST00000342085|human|control|control (ssRNA)
# RNA: GGGAGUUCUACAGUCCGACGAUCGGAGUGUGAGGAGGAGGACGAAGACACCUGCAUGCAGCCAAACUGGCUCAGGAGAUUGUCAUAAUUGCCAUAGCAGUCCUCGUCGUCUUCCGACAUAGCCGGCAGGUAAGCGGUGAGCUUCAACAGAGGAUUGAGCAUCA
# B5: chr16:87731977:87731978:+_ENSMUSG00000025612_ENSMUST00000026703|mus_hu|FALSE|FALSE (ssRNA)
# RNA: GGGAGUUCUACAGUCCGACGAUCUGGGAUGCACUAUCAGAAUUAUUCUCCCUGACAAAUUCUUGAGUGUACUUAUAAAAGCUACUAGAAAAUAAACAAGUCCAACUAAUUUUCUCUUACAAAUAAGUCAGUGACAGAGAGAACCAACAGAGGAUUGAGCAUCA
# B6: chr2:27656205:27656206:+_ENSG00000115216_ENST00000379852|hu_mus|FALSE|FALSE (ssRNA)
# RNA: GGGAGUUCUACAGUCCGACGAUCACAGAAGUCAGGCCAGGAGCUAAAGAUGAGGAUUCUACCUUUGGGUCUGAGCCACUGCUGACUACUGUUUGGGACUCCCCUUCCGACAUGCUGGAAUGAACACUCAGCCUCCCGACUCCGCAACAGAGGAUUGAGCAUCA
# B7: 29839812_29839932_933_CDS_ENSG00000197321_ENST00000375400|human|control|control (ssRNA)
# RNA: GGGAGUUCUACAGUCCGACGAUCACCGGCACAGGUCCUGAGCCCCAUCGUCUCGGUCCCGGGGUACAGAGAACUAGCAUCUCUGCUUGACUCUUCCUGUUUGUCACUUUUUCCUCCCCGCUUCUCGACAGCAUCAGGCUCCUUCAACAGAGGAUUGAGCAUCA
# B8: chr5:54662584:54662585:+_ENSG00000039123_ENST00000230640|hu_mus|FALSE|FALSE (ssRNA)
# RNA: GGGAGUUCUACAGUCCGACGAUCAAUUUCUUCUACUCUUAGUAAGUUCAAAACCAUGUUAUAGGUCAGAUGGAAAGCACUGUUCAGAGGAUCAGCUGACCCCUUAAGCAGCUGCUUUCCAAUAGUUGGGCUCAUCUUCUCGUCCAACAGAGGAUUGAGCAUCA
# B9: chr9:21333030:21333031:-_ENSG00000198642_ENST00000537938|hu_hu|motif|central (ssRNA)
# RNA: GGGAGUUCUACAGUCCGACGAUCAAGGGGAAGUAUUAGAUCACCCAUGACGUACUGCAAAGGUGUUACACCUUAGACCGGAGAAUGAUCUGAAGGUGCUGAAAGAGGUGAUUCUCUAGAAGGUGACCCAGGGUUUUCUUCAGGCAACAGAGGAUUGAGCAUCA
# B10: chr21:40768814:40768815:+_ENSG00000182093_ENST00000333781|hu_hu|FALSE|FALSE (ssRNA)
# RNA: GGGAGUUCUACAGUCCGACGAUCCCAUCCUCCUGUUCAGCUGAACGGAUGAAGCACAAUAGCGACAACUUUGUUACAGACUAAAAUCCAACAGGUAAUUCCAACACCACCUGCUACUCUAGUAGGAAAGGCUACCAGGCGGUCCAACAGAGGAUUGAGCAUCA
# B11: 25784004_25789866_2234_CDS_ENSG00000091490_ENST00000264868|human|control|control (ssRNA)
# RNA: GGGAGUUCUACAGUCCGACGAUCAUACCAUCCCAGGCCAUUGACUGCCUGAUGCAAUCCCUUGGAAGCUGCUUUCUUCAUCAGCUCUAAGGCAAGCCGUCUGUUCUUUUUUACUCCUUGACCCUUGAAUAGCACAAUGGCAUACAACAGAGGAUUGAGCAUCA
# B12: 137287219_137288168_2140_3pUTR_ENSMUSG00000041879_ENSMUST00000161189|mouse|control|control (ssRNA)
# RNA: GGGAGUUCUACAGUCCGACGAUCUGUAGUCAAGAUGUCAAUGGCUGUCGCACAGAGCCCCGCAGGGAUCUUGUCUGCUGGGGCCUGCAUUAUGCUGACCAGCGUGGGAAUCAGCCUCAUCUGCAUGGGACCUUGACAGGCUUCCAACAGAGGAUUGAGCAUCA
# B13: 55057811_55057931_3195_CDS_ENSMUSG00000052713_ENSMUST00000064763|mouse|control|control (ssRNA)
# RNA: GGGAGUUCUACAGUCCGACGAUCCAUGCGUGAGGCACUCCCGAUGGAAGGGCUGGGGGCAUUGUCCGUGAAUGUGUAAACCUUAUCGGCCUCGGCUUUGAUGCUGGCCAUGCGGCUCUCCUGAGACUCUGACAAUCCAUUAGCCAACAGAGGAUUGAGCAUCA
# B14: chr19:8913615:8913616:-_ENSMUSG00000071658_ENSMUST00000096259|mus_hu|mus_mus_mus_hu_False|1_78 (ssRNA)
# RNA: GGGAGUUCUACAGUCCGACGAUCAGGGUACCAAAACCUUCUGCCUGAAAUGGGUGCCCCACCCUGCAGGGAGUUGCAGCUGAAAGUAUCUGAUGCAGAAGCAGUGACUAUACGAAAGGAGGCCCCUGGGGAGGGCCCGAGAUCCAACAGAGGAUUGAGCAUCA
# B15: 70566570_70570526_580_3pUTR_ENSMUSG00000054693_ENSMUST00000067880|mouse|control|control (ssRNA)
# RNA: GGGAGUUCUACAGUCCGACGAUCAAUGUAUCUCUCUGCUGGCUCAAUGUAAAACGUGCCACCACGAGUCUUGAUGAAACCUUCAAAUCUUCCAUCAAUGACAGACCCAUGACUAAAGCUUCCUUCUUCACCAUAAAUAUGUCCCAACAGAGGAUUGAGCAUCA
# B16: chr1:39494447:39494448:+_ENSG00000168653_ENST00000372967|hu_mus|hu_hu_hu_mus_False|98_108 (ssRNA)
# RNA: GGGAGUUCUACAGUCCGACGAUCGCAUCGACCAGCCAUCUUGUAGGGCUGUUCUGCGCUUAGGAACAUAAAGUGCCGGUCCAGGCUGAUGCCCAGCUUUUUCUGUAUGUCAAGGAAAGGCAUGGCUCUGCAGUGCCCUUGUCACAACAGAGGAUUGAGCAUCA
# B17: 24167579_24190110_409_CDS_ENSG00000127863_ENST00000382263|human|control|control (ssRNA)
# RNA: GGGAGUUCUACAGUCCGACGAUCGCAGUCCAGACAGGGCUUGCAUUUCUGGAAGCCCCAGUCCUCCUUGAACCUGUGCAGCCGGCACGUCACACACUGUGCAUCCUCCCCAUAGCCGAAGCCACAUUCCUUAGACAACUCCAUCAACAGAGGAUUGAGCAUCA
# B18: chr7:75932113:75932114:+_ENSG00000106211_ENST00000248553|hu_hu|hu_hu_hu_mus_False|28_88 (ssRNA)
# RNA: GGGAGUUCUACAGUCCGACGAUCCUGCGACCACUCAUCGGGCAACCGGGGCAGCCCGAAAGCUUGAUCGAAGAGGCGGCUGUGUGCAGGGUACCAGUCCCGGAAUGCCCAGCUGGGCGGGCUCCGCAGCAGCGAGAAGGGCACCAACAGAGGAUUGAGCAUCA
# B19: chr13:100192284:100192285:-_ENSMUSG00000052727_ENSMUST00000064762|mus_hu|motif|central (ssRNA)
# RNA: GGGAGUUCUACAGUCCGACGAUCGUAAGAUUUCCAUUAGCAAAUGAUUAAAUCUUAAUUAAAUGAGUAUUGGAAAGCUCCGGGACUGCAUAAGCUAUUGGAGACACUUAAAACAUUCAUAUACACUGGGGAAACCAUUCACUACAACAGAGGAUUGAGCAUCA
# B20: chrX:20185780:20185781:-_ENSG00000177189_ENST00000379565|hu_mus|FALSE|FALSE (ssRNA)
# RNA: GGGAGUUCUACAGUCCGACGAUCUUUGGUUAUAGUAAACAGGACAGCGCUGGCCUCUCGCUCUGAGAAAAACUUCUGUCUAAGAAUCUUAUCCAGCAAUUCACCUCCUUUCAUAAGUUCUGUUACUACAUACACAUAUUUUCCCAACAGAGGAUUGAGCAUCA
# B21: chr8:127356239:127356240:+_ENSMUSG00000036913_ENSMUST00000167588|mus_mus|FALSE|FALSE (ssRNA)
# RNA: GGGAGUUCUACAGUCCGACGAUCCACCCUGCUAUCAGCAUAUUGCUCCCUGGCUCUGGAUUCCUUCAGGCCACAGGGCAGCUAAGGACAUUUUGGAACCACAUAAAGAUCUGAAGGUACAGCCUGGACCACACACGGUGUGAGCAACAGAGGAUUGAGCAUCA
# B22: chr8:22473583:22473584:+_ENSG00000158941_ENST00000389279|hu_hu|motif|central (ssRNA)
# RNA: GGGAGUUCUACAGUCCGACGAUCAGGUUCAGGUGGGGACACGACCUUUUCAGGAAGGCUCAGUAGCAUCUUAUAAACUCGGUAGCCAAAAUCCCUCUGGAGCAUCUCCAGAAACAGCUCGGCCAGCACCAUCACCUCAAAAGACAACAGAGGAUUGAGCAUCA
# Target: T1, UNK ZnF1-3
# Test: nsRBNS (natural sequence RNA bind-n-seq); RBNS binding buffer (assumed for nsRBNS): 25 mM Tris pH 7.5, 150 mM KCl, 3 mM MgCl2, 0.01% Triton X-100, 500 ug/ml BSA, 20 U/ml SUPERase-In, 4 C; UNK is unkempt and MSI1 is Musashi-1; names of the RNAs are library labels; protein concentration not given here; high values mean tight binding
row,Binder,binding signal [enrichment R]
1,B1,0.829
2,B2,0.641
3,B3,0.811
4,B4,0.797
5,B5,0.615
6,B6,1.18
7,B7,1.28
8,B8,0.371
9,B9,0.908
10,B10,1.04
11,B11,0.658
12,B12,0.733
13,B13,0.932
14,B14,1.33
15,B15,0.982
16,B16,0.941
17,B17,1.41
18,B18,1.11
19,B19,1.47
20,B20,0.941
21,B21,0.941
22,B22,0.822
